Patent publication US9433687B2, “Anti-Notch3 antibodies and antibody-drug conjugates” (Pfizer Inc., priority 2012, dated 2016)

Key:
[1] = tested on: MDA-MB-468 breast xenografts; assay: MDA-MB-468 breast xenograft model; format: in vivo, mouse
Experimental: Similar in vivo experiments were performed with the MDA-MB-468 breast cancer cell line as described above. MDA-MB-468 cells are classified as a triple-negative breast cancer (TNBC) basal-like subtype since they lack expression of the estrogen receptor, progesterone receptor and human epidermal growth factor receptor 2 (HER2) (Lehmann, B D, et al, J Clin Invest. 2011; 121(7):2750-2767). To generate xenografts, female SCID Hairless Outbred (SHO) mice were orthotopically implanted with 10×10^6 MDA-MB-468 cells containing 50% Matrigel (BD Biosciences) in the mammary fat pad. […] FIGS. 13A and 13B show graphs of the data from Table 23 of anti-Notch3 ADCs with vc0101 linker-payloads compared to control huNeg-8.8 ADCs and PBS vehicle. FIGS. 14A and 14B show graphs of the data from Table 24 of the anti-Notch3 ADCs with vc6780 linker-payloads compared to control huNeg-8.8 ADC and PBS vehicle.
The MDA-MB-468 breast cancer model was also dosed intravenously Q4d×4 with PBS vehicle, rat-human chimeric anti-Notch3 ADCs and control huNeg-8.8 ADCs, at a dose of 5 mg/kg as provided in FIGS. 16B and 16C.

[2] = tested on: 37622A1 NSCLC patient-derived xenografts; assay: 37622A1 patient derived NSCLC xenograft model; format: in vivo, mouse; conditions: 3 mg/kg iv Q4dx4
Source text: The effects of anti-Notch3 ADCs were examined in immunodeficient mice on the in vivo growth of human tumor xenografts that were established from fragments of freshly resected 37622A1 NSCLC tumors obtained in accordance with appropriate consent procedures (Asterand). The 37622A1 NSCLC patient-derived xenografts were subcutaneously passaged in vivo as fragments from animal to animal in nude (Nu/Nu) female mice. When the tumors reached a volume of 150 to 300 mm^3, they were staged to ensure uniformity of the tumor size among various treatment groups. The 37622A1 NSCLC patient-derived xenografts model was dosed intravenously four times every four days (Q4d×4) with PBS vehicle, humanized anti-Notch3 ADCs, control huNeg-8.8 ADCs and cisplatin at the doses provided in Table 19.

B1: hu28-vc0101: hu28 conjugated to vc0101 linker-payload (conjugate)
heavy: EVQLVESGGGLVQPGGSLRLSCAASGFTFRDYGMTWVRQAPGKGLEWVAYISSGSNYIYYAEAVKGRFTISRDNAKNSLYLQMNSLRAEDTAVYYCARRGPFVLDAWGQGTLVTVSS[letters of human IgG1 constant region omitted]
light: DIQMTQSPSSLSASVGDRVTITCKASQSINRYLHWYQQKPGKAPKLLIYNANGLQTGVPSRFSGSGSGTDFTLTISSLQPEDFATYYCLQHNTWPDTFGGGTKVEIKRTVAAPSVFIFPPSDEQLKSGTASVVCLLNNFYPREAKVQWKVDNALQSGNSQESVTEQDSKDSTYSLSSTLTLSKADYEKHKVYACEVTHQGLSSPVTKSFNRGEC
Q: What does the source list for B1?
A: tumor volume (mm^3 ± SEM) ([1]; Table 23, 0.3 mg/kg i.v. Q4d×4, DAY 0): 336 mm^3; tumor volume (mm^3 ± SEM) ([1]; Table 23, 0.3 mg/kg i.v. Q4d×4, DAY 4): 403 mm^3; tumor volume (mm^3 ± SEM) ([1]; Table 23, 0.3 mg/kg i.v. Q4d×4, DAY 7): 395 mm^3; tumor volume (mm^3 ± SEM) ([1]; Table 23, 0.3 mg/kg i.v. Q4d×4, DAY 11): 412 mm^3; tumor volume (mm^3 ± SEM) ([1]; Table 23, 0.3 mg/kg i.v. Q4d×4, DAY 14): 488 mm^3; tumor volume (mm^3 ± SEM) ([1]; Table 23, 0.3 mg/kg i.v. Q4d×4, DAY 18): 497 mm^3; tumor volume (mm^3 ± SEM) ([1]; Table 23, 0.3 mg/kg i.v. Q4d×4, DAY 21): 509 mm^3; tumor volume (mm^3 ± SEM) ([1]; Table 23, 0.3 mg/kg i.v. Q4d×4, DAY 26): 590 mm^3; tumor volume (mm^3 ± SEM) ([1]; Table 23, 1 mg/kg i.v. Q4d×4, DAY 0): 348 mm^3; tumor volume (mm^3 ± SEM) ([1]; Table 23, 1 mg/kg i.v. Q4d×4, DAY 4): 439 mm^3; tumor volume (mm^3 ± SEM) ([1]; Table 23, 1 mg/kg i.v. Q4d×4, DAY 7): 415 mm^3; tumor volume (mm^3 ± SEM) ([1]; Table 23, 1 mg/kg i.v. Q4d×4, DAY 11): 372 mm^3; tumor volume (mm^3 ± SEM) ([1]; Table 23, 1 mg/kg i.v. Q4d×4, DAY 14): 314 mm^3; tumor volume (mm^3 ± SEM) ([1]; Table 23, 1 mg/kg i.v. Q4d×4, DAY 18): 261 mm^3; tumor volume (mm^3 ± SEM) ([1]; Table 23, 1 mg/kg i.v. Q4d×4, DAY 21): 219 mm^3; tumor volume (mm^3 ± SEM) ([1]; Table 23, 1 mg/kg i.v. Q4d×4, DAY 26): 253 mm^3; tumor volume (mm^3 ± SEM) ([1]; Table 23, 1 mg/kg i.v. Q4d×4, DAY 29): 238 mm^3; tumor volume (mm^3 ± SEM) ([1]; Table 23, 1 mg/kg i.v. Q4d×4, DAY 32): 266 mm^3; tumor volume (mm^3 ± SEM) ([1]; Table 23, 1 mg/kg i.v. Q4d×4, DAY 35): 271 mm^3; tumor volume (mm^3 ± SEM) ([1]; Table 23, 1 mg/kg i.v. Q4d×4, DAY 39): 310 mm^3; tumor volume (mm^3 ± SEM) ([1]; Table 23, 1 mg/kg i.v. Q4d×4, DAY 42): 349 mm^3; tumor volume (mm^3 ± SEM) ([1]; Table 23, 1 mg/kg i.v. Q4d×4, DAY 47): 394 mm^3; tumor volume (mm^3 ± SEM) ([1]; Table 23, 1 mg/kg i.v. Q4d×4, DAY 50): 377 mm^3; tumor volume (mm^3 ± SEM) ([1]; Table 23, 1 mg/kg i.v. Q4d×4, DAY 53): 414 mm^3; tumor volume (mm^3 ± SEM) ([1]; Table 23, 1 mg/kg i.v. Q4d×4, DAY 56): 470 mm^3; tumor volume (mm^3 ± SEM) ([1]; Table 23, 1 mg/kg i.v. Q4d×4, DAY 60): 532 mm^3; tumor volume (mm^3 ± SEM) ([1]; Table 23, 1 mg/kg i.v. Q4d×4, DAY 63): 509 mm^3; tumor volume (mm^3 ± SEM) ([1]; Table 23, 1 mg/kg i.v. Q4d×4, DAY 67): 611 mm^3; tumor volume (mm^3 ± SEM) ([1]; Table 23, 3 mg/kg i.v. Q4d×4, DAY 0): 347 mm^3; tumor volume (mm^3 ± SEM) ([1]; Table 23, 3 mg/kg i.v. Q4d×4, DAY 4): 359 mm^3; tumor volume (mm^3 ± SEM) ([1]; Table 23, 3 mg/kg i.v. Q4d×4, DAY 7): 326 mm^3; tumor volume (mm^3 ± SEM) ([1]; Table 23, 3 mg/kg i.v. Q4d×4, DAY 11): 227 mm^3; tumor volume (mm^3 ± SEM) ([1]; Table 23, 3 mg/kg i.v. Q4d×4, DAY 14): 147 mm^3; tumor volume (mm^3 ± SEM) ([1]; Table 23, 3 mg/kg i.v. Q4d×4, DAY 18): 77 mm^3; tumor volume (mm^3 ± SEM) ([1]; Table 23, 3 mg/kg i.v. Q4d×4, DAY 21): 16 mm^3; tumor volume (mm^3 ± SEM) ([1]; Table 23, 3 mg/kg i.v. Q4d×4, DAY 26): 0 mm^3; tumor volume (mm^3 ± SEM) ([1]; Table 23, 3 mg/kg i.v. Q4d×4, DAY 29): 0 mm^3; tumor volume (mm^3 ± SEM) ([1]; Table 23, 3 mg/kg i.v. Q4d×4, DAY 32): 0 mm^3; tumor volume (mm^3 ± SEM) ([1]; Table 23, 3 mg/kg i.v. Q4d×4, DAY 35): 0 mm^3; tumor volume (mm^3 ± SEM) ([1]; Table 23, 3 mg/kg i.v. Q4d×4, DAY 39): 0 mm^3; tumor volume (mm^3 ± SEM) ([1]; Table 23, 3 mg/kg i.v. Q4d×4, DAY 42): 0 mm^3; tumor volume (mm^3 ± SEM) ([1]; Table 23, 3 mg/kg i.v. Q4d×4, DAY 47): 0 mm^3; tumor volume (mm^3 ± SEM) ([1]; Table 23, 3 mg/kg i.v. Q4d×4, DAY 50): 0 mm^3; tumor volume (mm^3 ± SEM) ([1]; Table 23, 3 mg/kg i.v. Q4d×4, DAY 53): 0 mm^3; tumor volume (mm^3 ± SEM) ([1]; Table 23, 3 mg/kg i.v. Q4d×4, DAY 56): 0 mm^3; tumor volume (mm^3 ± SEM) ([1]; Table 23, 3 mg/kg i.v. Q4d×4, DAY 60): 0 mm^3; tumor volume (mm^3 ± SEM) ([1]; Table 23, 3 mg/kg i.v. Q4d×4, DAY 63): 0 mm^3; tumor volume (mm^3 ± SEM) ([1]; Table 23, 3 mg/kg i.v. Q4d×4, DAY 67): 0 mm^3; tumor volume (mm^3 ± SEM) ([1]; Table 23, 3 mg/kg i.v. Q4d×4, DAY 70): 0 mm^3; tumor volume (mm^3 ± SEM) ([1]; Table 23, 3 mg/kg i.v. Q4d×4, DAY 76): 0 mm^3; tumor volume (mm^3 ± SEM) ([1]; Table 23, 3 mg/kg i.v. Q4d×4, DAY 83): 0 mm^3; tumor volume (mm^3 ± SEM) ([1]; Table 23, 3 mg/kg i.v. Q4d×4, DAY 90): 0 mm^3; tumor volume (mm^3 ± SEM) ([1]; Table 23, 3 mg/kg i.v. Q4d×4, DAY 97): 0 mm^3; tumor volume (mm^3 ± SEM) ([1]; Table 23, 3 mg/kg i.v. Q4d×4, DAY 103): 0 mm^3; tumor volume (mm^3 ± SEM) ([1]; Table 23, 3 mg/kg i.v. Q4d×4, DAY 110): 0 mm^3; tumor volume (mm^3 ± SEM) ([1]; Table 23, 3 mg/kg i.v. Q4d×4, DAY 118): 0 mm^3; tumor volume (mm^3 ± SEM) ([1]; Table 23, 3 mg/kg i.v. Q4d×4, DAY 125): 0 mm^3; tumor volume ([2]; Day 4): 202 mm^3; tumor volume ([2]; Day 7): 202 mm^3; tumor volume ([2]; Day 11): 130 mm^3; tumor volume ([2]; Day 14): 119 mm^3; tumor volume ([2]; Day 18): 71 mm^3; tumor volume ([2]; Day 21): 55 mm^3; tumor volume ([2]; Day 25): 49 mm^3; tumor volume ([2]; Day 28): 41 mm^3; tumor volume ([2]; Day 32): 42 mm^3; tumor volume ([2]; Day 35): 42 mm^3; tumor volume ([2]; Day 39): 62 mm^3; tumor volume ([2]; Day 42): 75 mm^3; tumor volume ([2]; Day 46): 92 mm^3; tumor volume ([2]; Day 49): 120 mm^3; tumor volume ([2]; Day 53): 144 mm^3; tumor volume ([2]; Day 56): 126 mm^3; tumor volume ([2]; Day 60): 180 mm^3; tumor volume ([2]; Day 63): 223 mm^3; tumor volume ([2]; Day 67): 296 mm^3; tumor volume ([2]; Day 70): 312 mm^3; tumor volume ([2]; Day 74): 331 mm^3; tumor volume ([2]; Day 77): 422 mm^3; tumor volume ([2]; Day 81): 510 mm^3; tumor volume ([2]; Day 84): 622 mm^3; tumor volume ([2]; Day -1): 186 mm^3; animals still on study that remained tumor-free ([2]; by day 84): four out of nine
